# Measurements published in PubChem BioAssay AID686979 (National Center for Advancing Translational Sciences (NCATS), 2013).
# The campaign covered roughly 420,000 compounds. About 50,000 (12%) were called active. Inconclusive means that the source gave no clear call. Such entries were picked first, then a sample of the others. The call rests on the fitted dose curve; in most records, active means well fitted inhibition curve with a large enough effect; inconclusive means small, poorly fitted or top-dose-only effect; inactive means flat fitted curve, though single readings scatter. No potency is given beside an inconclusive call; the fits are too rough.
# Assay: qHTS for Inhibitors of human tyrosyl-DNA phosphodiesterase 1 (TDP1): qHTS in cells in presence of CPT; further: nearly all actives have a fitted effect of over 55% in size
# Conditions: chicken DT40 Tdp1-/-;hTDP1 cells + 20 nM CPT, ATP luminescence, 48 h; activity change, negative = growth inhibition: at 46.2 µM (top of the series) unless noted
# Outline: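 Cell growth measured by CellTiter-Glo luminescence after a minimum 48 h, 37 C compound exposure with 20 nM CPT in Tdp1-knockout DT40 cells stably expressing hTDP1, seeded 400/well; qHTS titration format.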
# On the % scale 0 is the no-effect control and ±100 the full control effect; potency means the concentration at half of the fitted maximal effect; tags describe the fitted curve by direction and shape.
SMILES,"activity change, negative = growth inhibition",Potency
COC(=O)C1=CN(CC2CCCO2)C=C(C(=O)OC)C1c1ccccc1C(F)(F)F (stereo not given),inactive: -2.1%,–
CN1CCN(c2nc3ccccc3nc2C(C#N)C(=O)OC2CCCCC2)CC1 (stereo not given),–,active: 29.1 µM
O=C(Nc1ccc(CN2CCOCC2)cc1)c1ccc(-c2ccc(Br)cc2)o1,–,active: 16.4 µM
COc1ccc(NC(=S)Nc2ccccn2)c(OC)c1,–,"inconclusive [inhibitor, single point]"
O=C(OCc1ccccc1)N1CCC2CC1c1cc(/C=C/CCCSc3ncccn3)ccc12 (stereo not given),–,"inconclusive [inhibitor, single point]"
CC1=NC(Nc2nc(C)c3ccccc3n2)=NC(C)(C)C1,–,active: 20.6 µM
O=C(Nc1cccc(Cl)c1)Nc1csc([N+](=O)[O-])c1,–,active: 2.91 µM
O=C(CCCN1C(=O)c2cccc3cccc(c23)C1=O)N1CCN(c2ccccc2)CC1,–,"inconclusive [inhibitor, single point]"
COc1ccc(S(=O)(=O)NCc2cccnc2)cc1NC(=O)c1ccccc1,inactive: -5.51%,–
COc1ccc([C@H]2CC(=O)C=C(c3ccc4ccn(C)c4c3)C2)cc1,–,"inconclusive [inhibitor, partial curve, poor fit]"
Cc1ccc(CNC(=O)COc2ccccc2-c2ccccc2)cc1,–,"inconclusive [inhibitor, single point]"
COc1cc(CNC2CCCCC2)c(Br)cc1OC1CCCC1,–,"inconclusive [inhibitor, single point]"
COc1ccc(-c2cc(C(F)(F)F)c(C#N)c(SCC(=O)Nc3ccccc3F)n2)cc1,inactive: 0.956%,–
COC(=O)[C@@]12C[C@@H](CC(=O)N3CCC(c4ccccc4)CC3)C(=O)N(Cc3ccc4c(c3)OCO4)C1=CCC(C)(C)C2,–,"inconclusive [inhibitor, single point]"
Cc1sc(-c2ccncc2)nc1OC(=O)c1ccccc1,inactive: -25.5%,–
Cn1c(CNC(=O)CNS(=O)(=O)c2ccc(F)cc2F)cc(=O)n(C)c1=O,inactive: -9.01%,–
Cc1ccc(S(=O)(=O)N2CCN(c3nc(-n4c(=O)[nH]c5ccccc54)nc4ccccc34)CC2)cc1,–,active: 11.2 µM
Cc1cc2cc(CCNC(=O)c3cccs3)c(=O)[nH]c2cc1C,–,"inconclusive [inhibitor, single point]"
Cc1ccccc1C(=O)Nc1nnc(SCC(=O)NCc2ccco2)s1,inactive: -0.484%,–
COc1cccc(CNc2nccn(-c3ccc(OC)c(OC)c3)c2=O)c1,inactive: 1.62%,–
Cc1ccc(NC(=S)N(CCCN2CCC(C)CC2)Cc2ccco2)cc1C,–,"inconclusive [inhibitor, single point]"
Cc1ncc(CO)c(CNc2ccc(Oc3ccccc3)cc2)c1O,–,active: 13 µM
COc1ccc(-n2c(/C=C/c3c(C)[nH]c4ccccc34)nc3ccccc3c2=O)cc1,–,"inconclusive [inhibitor, full curve, poor fit]"

SMILES,"activity change, negative = growth inhibition",Potency
COC(=O)COc1ccc(S(=O)(=O)Nc2ccc3c(c2)OCCO3)cc1C,inconclusive: -33.8% [inhibitor],–
CCOC(=O)CN(Cc1ccc(OC)c(OC)c1)S(=O)(=O)c1ccc(OC)cc1,–,"inconclusive [inhibitor, single point]"
COc1ccc(C(C(=O)NC(C)(C)C)N(C(=O)CCC(=O)Nc2cc(C)on2)c2ccc(C)c(C)c2)cc1 (stereo not given),–,"inconclusive [inhibitor, partial curve]"
COc1ccc(CNC(=O)c2cnn(-c3ccc(C)cc3)c2-n2cccc2)cc1OC,–,"inconclusive [inhibitor, single point]"
Cc1nc2ccc(Cl)cn2c1C(=O)NN,inactive: -3.08%,–
CC1=C(C(=O)OC(C)C)C(C)C(C(=O)OC(C)C)=C(C)N1,–,active: 11.2 µM
COc1ccccc1Cn1c(C)c(C(=O)NCc2ccc3c(c2)OCCO3)sc1=O,–,"inconclusive [inhibitor, single point]"
O=C(OCC(O)C(O)C(O)COC(=O)c1ccccc1)c1ccccc1 (stereo not given),inactive: 11.7%,–
NS(=O)(=O)c1ccc(CCNC(=O)c2ccc(NC3=NC4CS(=O)(=O)CC4S3)cc2)cc1 (stereo not given),inactive: 18.5%,–
COc1ccccc1C(CNC(=O)c1cccc(NS(=O)(=O)c2ccc(C)c(F)c2)c1)N(C)C (stereo not given),–,"inconclusive [inhibitor, single point]"
c1ccc(-c2ccc(CN3CCSCC3)cc2)cc1,–,"inconclusive [inhibitor, single point]"
Cc1ccc(CNC(=O)CCC2CCCN(Cc3cccc4ncccc34)C2)o1 (stereo not given),–,"inconclusive [inhibitor, single point]"
CCOc1ccc(N2C(=O)CC(NCCc3c[nH]c4ccccc34)C2=O)cc1 (stereo not given),inactive: 1.47%,–
COc1ccc(C)cc1N(CC(=O)NC1CCCC1)C(=O)CCC(=O)Nc1nc(C)cs1,–,"inconclusive [inhibitor, single point]"
COc1ccc(C(=O)NC2CC2)cc1OC1CCN(Cc2ccc(SC)cc2)CC1,–,"inconclusive [inhibitor, single point]"
COc1ccc(-n2ncc3c(N4CCCCC4)ncnc32)cc1,–,"inconclusive [inhibitor, single point]"
COc1ccccc1C(=O)Nc1ccc(OCc2cc(=O)n3ccc(C)cc3n2)cc1,inactive: -10.4%,–
C[C@H]1COC(=O)[C@H](CC(=O)OC(C)(C)C)C/C=C\C[C@@H](CC(=O)N[C@@H](CO)Cc2ccccc2)C(=O)N1,–,"inconclusive [inhibitor, single point]"
CCN1C(=O)/C(=C\c2cn(-c3ccccc3)nc2-c2cccnc2)SC1=S,–,active: 14.6 µM
COc1ccc(NCC(=O)N/N=C2\CCc3ccccc32)cc1,inconclusive: -30.6% [inhibitor],–
Cc1cc(C)c(C#N)c(SCS(=O)c2ccc(C(C)(C)C)cc2)n1 (stereo not given),–,"inconclusive [inhibitor, single point]"
COCc1cc(C)nc2sc3c(c12)NC(c1ccc(O)cc1)N(c1ccc(C)cc1)C3=O (stereo not given),–,active: 18.4 µM
